The whole screen tested about 310,000 compounds, of which about 18,000 (5.8%) were called active. Inconclusive results, whose numbers are uncertain, are shown with a selection of clear calls. The call rests on the fitted dose curve; in most records, active means well fitted inhibition curve with a large enough effect; inconclusive means small, poorly fitted or top-dose-only effect, or another doubt; inactive means no such curve, though single readings can be large or run the other way. Potencies of inconclusive entries are left out as doubtful fits.
Test: Primary qHTS for delayed death inhibitors of the malarial parasite plastid, 48 hour incubation
Settings: P. falciparum luciferase growth in erythrocytes; series mostly up to 28.7 µM; activity change, negative = inhibition: at the top concentration
Method in brief: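 Cell-based growth assay: transgenic P. falciparum expressing firefly luciferase, cultured in red cells within RPMI 1640 containing 0.5% w/v Albumax, 24 mM bicarbonate and gentamycin. A drop in luciferase activity indicates inhibition.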
In the case of `CC(NC(=S)Nc1ccc(OC(F)F)cc1OC(F)F)C(C)(C)C` (stereo unspecified), the Potency is reported as inconclusive [inhibitor, single point].
For `COc1ccc(OCc2cc(C(=O)O)c(C)o2)cc1`, the “activity change, negative = inhibition” value was inactive: 123%.
In the case of `CCC(C)c1ccccc1NC(=O)CN(C)CCOc1ccc(Cl)cc1` (stereo unspecified), the Potency is reported as inconclusive [inhibitor, partial curve, poor fit].
With `C[C@@H](NC(=O)[C@@H]1Cc2ccccc2CN1C(=O)OC(C)(C)C)C(=O)NC1CCCC1` the Potency was inconclusive [inhibitor, partial curve, poor fit].
For `OC1OC[C@@H](O)[C@H](O)[C@@H]1O` (stereo partly specified), the “activity change, negative = inhibition” value was inactive: 5.73%.
In the case of `CCN1C(=O)c2cccc3c(S(=O)(=O)NCc4ccccc4)ccc1c23`, the Potency is reported as inconclusive [inhibitor, single point].
For `CCOC(=O)c1cnc(-c2ccccc2)nc1Oc1ccc(C)cc1`, the Potency was active: 3.29 µM.
With `CC(=O)c1ccc(NC(=O)COc2ccccc2C(=O)Nc2ccccc2)cc1` the Potency was inconclusive [inhibitor, single point].
For `Nc1cc(=O)[nH]c(SCC(=O)NC2CCCc3ccccc32)n1` (stereo unspecified), the Potency was inconclusive [inhibitor, single point].
In the case of `Cc1c(NC(=O)C(C)OC(=O)c2c3c(nc4ccccc24)CCC3)c(=O)n(-c2ccccc2)n1C` (stereo unspecified), the Potency is reported as inconclusive [inhibitor, partial curve].
In the case of `COc1ccc(S(=O)(=O)N2CCCCC2)cc1NC(=O)c1ccc(N2CCCC2=O)cc1`, the Potency is reported as active: 9.28 µM.
In the case of `CCCCc1c(C)nc2ccc(Br)cc2c1SC(N)N`, the Potency is reported as inconclusive [inhibitor, single point].
In the case of `COc1ccc(NC(=O)CC(c2ccco2)C(C)C)cc1` (stereo unspecified), the Potency is reported as inconclusive [inhibitor, full curve, poor fit].
With `CC(C)(C)N(Cc1ccccc1)C(=O)c1ccncc1` the “activity change, negative = inhibition” value was inactive: 11.2%.
In the case of `CC(=O)Nc1c(C)nn(-c2ccc([N+](=O)[O-])cc2)c1C`, the “activity change, negative = inhibition” value is reported as inactive: -22.4%.
With `Cc1[nH][nH]c(=O)c1C(c1c(C)[nH][nH]c1=O)c1cn(Cc2cccc3ccccc23)c2ccccc12` the Potency was inconclusive [inhibitor, partial curve, poor fit].
With `Cc1ccc(/C=C/C(=O)Nc2sc3c(c2C#N)CCCC3)o1` the “activity change, negative = inhibition” value was inactive: 22.8%.
In the case of `COc1ccc(N=C2S/C(=C\c3ccco3)C(=O)N2CC(C)C)cc1`, the Potency is reported as inconclusive [inhibitor, single point].
For `CN(C1=C(N2CCOCC2)C(=O)c2ccccc2C1=O)c1ccccc1`, the Potency was inconclusive [inhibitor, partial curve].
For `COc1ccc(-n2cc(-c3ccc(OC)c(OC)c3)[nH]c2=S)cc1`, the Potency was inconclusive [inhibitor, single point].
In the case of `O=C(CNC(=O)[C@@H]1Cc2ccccc2CN1)Nc1ccc2c(c1)OCO2`, the “activity change, negative = inhibition” value is reported as inactive: -17.6%.
With `COc1ccc(C)cc1Nc1nc(C)nc2sc(C)cc12` the activity change, negative = inhibition was inactive: 0.297% [at 0.00184 µM].
With `O=C(OCc1nnc(-c2ccccc2)o1)c1ccc(S(=O)(=O)NCc2ccco2)cc1` the “activity change, negative = inhibition” value was inactive: 22.6%.
For `COC(=O)c1cc(C)ccc1OCc1ccc([N+](=O)[O-])cc1`, the “activity change, negative = inhibition” value was inactive: 40.3%.
In the case of `CN(C)c1cnn(-c2ccccc2)c(=O)c1Cl`, the “activity change, negative = inhibition” value is reported as inactive: 40%.
For `O=C(O)COc1ccccc1/C=N/NC(=O)CN1CCN(S(=O)(=O)c2ccc(Br)cc2)CC1`, the “activity change, negative = inhibition” value was inactive: -6.69%.
In the case of `CCNc1ccccc1CP(=O)(c1ccccc1)c1ccccc1O` (stereo unspecified), the Potency is reported as active: 13.1 µM.
In the case of `CN(C)CCNCCCOc1ccccc1-c1ccccc1`, the Potency is reported as active: 2.62 µM.
In the case of `COc1ccc(C2NC(=O)c3ccccc3O2)c(OC)c1OC` (stereo unspecified), the “activity change, negative = inhibition” value is reported as inactive: 2.81%.
For `C#CCOCCOCCOCCNc1nc(N2CCN(C(=O)[C@H](C(C)C)n3cc(CCO)nn3)CC2)nc(N2CCN(C(=O)[C@H]([C@@H](C)CC)n3cc(CCCN=C(N)N)nn3)CC2)n1`, the “activity change, negative = inhibition” value was inactive: -7.08%.
In the case of `CCCNC(=O)CN(c1ccccc1)S(=O)(=O)c1ccc(OC)c(OC)c1`, the Potency is reported as inconclusive [inhibitor, single point].
In the case of `COCCN(C(=O)Cc1cccs1)c1nnc(-c2cccnc2)s1`, the “activity change, negative = inhibition” value is reported as inactive: 15.7%.
In the case of `C=CC(=O)NC(NC(=O)C=C)c1ccc(Br)cc1`, the Potency is reported as inconclusive [inhibitor, full curve].
For `COc1ccc(OCCCC(=O)Nc2ccc3c(c2)OCCO3)cc1`, the “activity change, negative = inhibition” value was inactive: -11.9%.
For `c1ccc(Cn2nnnc2C(c2cccnc2)N2CCN(C3CCCCC3)CC2)cc1` (stereo unspecified), the Potency was inconclusive [inhibitor, single point].
In the case of `CNC(=O)Nc1ccc(Cn2cc(C(F)(F)F)ccc2=O)cc1`, the Potency is reported as inconclusive [inhibitor, single point].
In the case of `COc1ccc(OC)c(C(=O)CN2CCN(S(=O)(=O)c3ccc(Br)cc3)CC2)c1`, the “activity change, negative = inhibition” value is reported as inactive: -16.9%.
In the case of `Nc1nc2ncc(-c3ccsc3)c(N)n2n1`, the “activity change, negative = inhibition” value is reported as inactive: 6.2%.
With `COc1ccc(NC(=O)CSc2nnnn2C2CC3C=CC2C3)cc1` (stereo unspecified) the Potency was inconclusive [inhibitor, partial curve, poor fit].
In the case of `Cc1ccc(N2C(=O)CCSC23C(=O)Nc2ccccc23)cc1` (stereo unspecified), the Potency is reported as inconclusive [inhibitor, single point].
With `COc1ccccc1CCNC(=O)c1ccc(NC(=O)CC2SC(N3CCCCC3)=NC2=O)cc1` (stereo unspecified) the Potency was active: 11.7 µM.
For `O=C(CN(C(=O)CNS(=O)(=O)c1ccccc1)c1ccc(F)cc1)NCc1ccco1`, the “activity change, negative = inhibition” value was inactive: 5.17%.
In the case of `COc1ccc(C(=O)Nc2ccccc2C(=O)Nc2ccncc2)cc1`, the Potency is reported as active: 10.4 µM.
For `CC(C)CN(C(=O)COC(=O)c1ccccc1NCc1ccco1)c1c(N)n(Cc2ccccc2)c(=O)[nH]c1=O`, the Potency was inconclusive [inhibitor, single point].
With `Cc1nn(Cc2ccccc2)c(C)c1C(=O)OCC(=O)Nc1cccc(S(N)(=O)=O)c1` the “activity change, negative = inhibition” value was inactive: 0%.
With `Cc1ccc(S(=O)(=O)N2CCC(=O)N(C(COCc3cccc(Cl)c3)Cc3ccccc3)CC2)cc1` (stereo unspecified) the Potency was active: 8.28 µM.
With `Cc1ccccc1CNC(=O)Cn1ccc2cc(S(=O)(=O)N3CCCCCC3)ccc21` the Potency was inconclusive [inhibitor, single point].
For `CN(Cc1ccccc1)C(=O)C1CCN(S(=O)(=O)c2cccc3nsnc23)CC1`, the Potency was inconclusive [inhibitor, single point].
For `O=C(NC1CCCC1)C1C2C=CC(C2)C1C(=O)N1CCOCC1` (stereo unspecified), the “activity change, negative = inhibition” value was inactive: 10%.
In the case of `CCc1[nH]nc2c1C(c1ccsc1)C(C#N)=C(N)O2` (stereo unspecified), the “activity change, negative = inhibition” value is reported as inactive: 3.75%.
In the case of `O=C(c1cccs1)N1N=C(c2ccccc2)CC1c1ccccc1` (stereo unspecified), the Potency is reported as inconclusive [inhibitor, partial curve].
With `CCN(CC)c1ccc(/C=N/N=C(N)N)c(O)c1` the Potency was inconclusive [inhibitor, full curve, poor fit].
For `COc1ccc(OC)c(N(CC(=O)NCCSc2ccccc2)S(C)(=O)=O)c1`, the Potency was inconclusive [inhibitor, partial curve, poor fit].
For `COc1ccc(N2CCCC2)c(NC(=O)c2ccc([N+](=O)[O-])o2)c1`, the Potency was inconclusive [inhibitor, single point].
In the case of `COc1ccc(C2(CNC(=O)c3ccc(OCC(C)C)cc3)CCOCC2)cc1`, the Potency is reported as inconclusive [inhibitor, single point].
With `C#CCSc1nnc(-c2c[nH]c3ccccc23)n1C` the Potency was inconclusive [inhibitor, single point].
For `COCC(=O)Nc1ccc(OC)c(Cl)c1`, the “activity change, negative = inhibition” value was inactive: 34.3%.
With `COc1ccc(NS(=O)(=O)c2ccc(Cl)c(NC(=O)c3cccnc3Cl)c2)cc1` the Potency was inconclusive [inhibitor, partial curve, poor fit].
With `Cc1ccc(CN2C(=O)/C(=C3\SC(N4CCOCC4)=NC3=O)c3cc(Br)ccc32)cc1` the Potency was inconclusive [inhibitor, single point].
For `CN(Cc1ccccc1)C(=O)C1CCN(S(=O)(=O)c2ccc3nc4c(c(C(=O)O)c3c2)CCCC4)CC1`, the Potency was inconclusive [inhibitor, single point].
With `Cc1ccccc1C(=O)N1CCc2cc(-c3nc(NC(=O)Cc4ccc5c(c4)OCO5)sc3C)ccc21` the Potency was inconclusive [inhibitor, full curve, poor fit].
With `O=C1CCc2cc(NS(=O)(=O)c3ccc(Cl)cc3)cc3c2N1CC3` the “activity change, negative = inhibition” value was inactive: -25.4%.
For `CCN(C(=O)CSc1nnnn1-c1ccccc1OC)C1CCS(=O)(=O)C1` (stereo unspecified), the “activity change, negative = inhibition” value was inactive: -20.5%.
In the case of `COc1ccc(NS(=O)(=O)c2ccc(N3CCOCC3)c(NC(=O)c3ccc(OC)cc3)c2)cc1`, the “activity change, negative = inhibition” value is reported as inactive: 0%.
With `COC(=O)Cc1c(C)c2ccc(OCC(=O)N3CCCC(C)C3)c(C)c2oc1=O` (stereo unspecified) the Potency was inconclusive [inhibitor, full curve, poor fit].
In the case of `Cc1cc2ccccc2n2c(SCC(=O)N3CCc4ccccc4C3)nnc12`, the Potency is reported as inconclusive [inhibitor, partial curve].
For `O=C(CSc1cn(CCNC(=O)c2ccc3ccccc3c2)c2ccccc12)NCc1ccco1`, the Potency was inconclusive [inhibitor, partial curve].
With `O=C(Nc1ccc2c(c1)OCO2)c1cccc(F)c1` the “activity change, negative = inhibition” value was inactive: 118%.
With `CCn1cnc2c1c(=O)n(CC(=O)OC(C)C(N)=O)c(=O)n2Cc1ccccc1` (stereo unspecified) the Potency was inconclusive [inhibitor, partial curve].
In the case of `COc1ccc(CCN(C)CC(=O)Nc2c(C)cc(C)cc2C)cc1OC`, the Potency is reported as inconclusive [inhibitor, partial curve, poor fit].
In the case of `O=C(Nc1nc2ccc(S(=O)(=O)N3CCCCC3)cc2s1)c1ccncc1`, the Potency is reported as inconclusive [inhibitor, full curve, poor fit].
On the % scale 0 is the no-effect control and ±100 the full control effect; potency means the concentration at half of the fitted maximal effect; tags describe the fitted curve by direction and shape.
